# Laboratory results published in paper PMC4336329 (PLoS ONE, 2015).
# In all, about 310,000 compounds went through this assay and about 14,000 (4.5%) showed an effect of 50% or more. Effects have a minus sign here. Some of the results follow.
# Biological target: human ether-à-go-go-related gene (hERG) potassium channel (human, UniProt Q12809)
# Test: primary screen, population patch clamp on CHO cells stably expressing hERG
# 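Also: peak tail current of the secondary pulse compared with the same well before compound.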
# human ether-à-go-go-related gene (hERG) potassium channel, sequence (Q12809 whole entry, looked up): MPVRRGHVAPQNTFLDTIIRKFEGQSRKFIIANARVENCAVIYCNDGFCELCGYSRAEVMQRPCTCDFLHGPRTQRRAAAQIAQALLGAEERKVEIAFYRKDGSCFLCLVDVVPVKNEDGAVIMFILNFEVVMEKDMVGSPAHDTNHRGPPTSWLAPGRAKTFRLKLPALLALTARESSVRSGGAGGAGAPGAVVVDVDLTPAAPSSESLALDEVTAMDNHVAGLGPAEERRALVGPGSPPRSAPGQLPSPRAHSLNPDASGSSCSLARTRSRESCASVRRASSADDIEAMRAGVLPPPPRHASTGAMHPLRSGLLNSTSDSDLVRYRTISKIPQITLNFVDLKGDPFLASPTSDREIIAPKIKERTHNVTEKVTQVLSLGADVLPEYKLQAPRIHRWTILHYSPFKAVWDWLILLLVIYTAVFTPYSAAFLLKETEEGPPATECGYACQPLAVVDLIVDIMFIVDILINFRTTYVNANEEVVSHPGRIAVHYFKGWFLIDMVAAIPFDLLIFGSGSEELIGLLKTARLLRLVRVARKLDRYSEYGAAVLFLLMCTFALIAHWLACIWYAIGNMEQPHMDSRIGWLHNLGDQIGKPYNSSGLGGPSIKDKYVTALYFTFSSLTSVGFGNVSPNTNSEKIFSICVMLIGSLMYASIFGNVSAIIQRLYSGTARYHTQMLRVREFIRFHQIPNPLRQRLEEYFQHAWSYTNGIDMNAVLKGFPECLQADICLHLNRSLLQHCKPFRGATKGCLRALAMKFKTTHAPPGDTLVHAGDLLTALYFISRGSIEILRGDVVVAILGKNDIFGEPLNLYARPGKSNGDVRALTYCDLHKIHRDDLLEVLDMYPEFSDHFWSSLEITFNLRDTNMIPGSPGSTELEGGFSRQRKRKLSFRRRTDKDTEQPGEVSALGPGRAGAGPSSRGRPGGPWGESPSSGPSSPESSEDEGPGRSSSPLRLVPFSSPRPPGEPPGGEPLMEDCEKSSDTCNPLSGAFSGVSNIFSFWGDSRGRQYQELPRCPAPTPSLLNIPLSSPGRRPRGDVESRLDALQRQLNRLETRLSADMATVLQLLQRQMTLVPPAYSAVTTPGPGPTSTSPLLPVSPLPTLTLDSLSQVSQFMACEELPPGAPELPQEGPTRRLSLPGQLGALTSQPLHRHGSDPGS
row,Compound,"hERG current change (%, negative = inhibition) at 10uM [%]"
1,CCCNc1c(NS(=O)(=O)c2ccc(C3CCCCC3)cc2)c(=O)oc2ccccc12,21.9
2,CC(=O)c1c(COC(=O)c2ccncc2)nc2ccccc2[n+]1[O-],0.834
3,Cc1nnc(SCC(=O)Nc2ncc(S(=O)(=O)c3ccc([N+](=O)[O-])cc3)s2)s1,0.397
4,COc1ccc(C)cc1NC(=O)CSc1nc2ccccc2nc1N1CC(C)OC(C)C1 (centres unmarked),23.9
5,CCN(CC)C(=O)Cn1cc(S(=O)(=O)CC(=O)NC2CCCCC2)c2ccccc21,-4.65
6,COC(=O)CNC(=O)c1ccc(NS(=O)(=O)c2cc([N+](=O)[O-])ccc2Cl)cc1,8.77
7,CS/C(=N\S(=O)(=O)c1ccc(N)cc1)NS(=O)(=O)c1cccs1,2.07
8,CC1=CC(=C(C#N)C#N)C=C(C)N1Cc1ccc(Cl)cc1,5.27
9,CC(=O)c1cc(-c2ccccc2)n(CCC(=O)NCc2cccs2)c1C,-13.5
10,CN(c1ccc(OCC(=O)N2CCCCC2)cc1)S(=O)(=O)c1cccs1,-11.2
11,Cc1cc(C)c[n+](C2=C([O-])c3ccccc3C(=O)/C2=N\S(=O)(=O)c2cccs2)c1,-5.34
12,CN(C)C(=O)Oc1ccc([N+](=O)[O-])cc1,18.1
13,Cc1ccccc1OCC(=O)NC(=S)Nc1ccc(S(=O)(=O)NC2CCCCC2)cc1,16.1
14,O=C(NCc1nc2ccccc2[nH]1)C1=C[C@H](c2ccccc2)C[C@H](OCc2ccc(CO)cc2)O1,-13.6
15,Cc1nc2cc(NC(=O)CS(=O)(=O)c3ccc(F)cc3)ccc2s1,-55.8
16,Clc1cc(Cl)c(Cl)cc1Cl,13.4
17,Cc1cc(OC(=O)c2cccc(Br)c2)c([N+](=O)[O-])c(=O)[nH]1,5.03
18,CC(=O)c1cccc(NC(=O)COC(=O)COc2ccc(Cl)cc2)c1,20
19,COC(=O)c1[nH]c(C)c(/C(O)=C2\C(=O)C(=O)N(CCN(C)C)C2c2cccs2)c1C (centres unmarked),16.9
20,Cc1cccc(NC(=O)c2c(C)nn(-c3ccccc3)c2Cl)c1,-4.56
21,O=S(=O)(NCc1ccccn1)c1ccc2ccccc2c1,-1.97
22,Cc1ccc2nsnc2c1NC(=O)COc1ccccc1F,-13.8
23,O=C(Nc1ccc(F)cc1)Nc1ccc2c(c1)CCC2,12.6

row,Compound,"hERG current change (%, negative = inhibition) at 10uM [%]"
1,CCOC(=O)C1(Cc2cccc(F)c2)CCN(Cc2nc(CC)[nH]c2C)CC1,-22.2
2,O=C(c1ccccc1[N+](=O)[O-])N1N=C(c2ccccc2)CC1(O)C(F)(F)F (centres unmarked),9.76
3,COc1cc(NC(=O)[C@H]2CSCN2C(=O)[C@@H]2CCC(=O)N2)cc(OC)c1OC,8.8
4,Cc1ccc(S(=O)(=O)Nc2nc(C)cc(NN)n2)cc1,17.3
5,COc1cc(C2NC(=O)NC(C)=C2C(=O)OCc2ccccc2)ccc1O (centres unmarked),-15.8
6,CN(C)CCCNc1cc(C(C)(C)C)nc2c(-c3ccccc3)cnn12,-18.3
7,CC(C)c1nc2sc3c(SCC(=O)NCc4ccco4)ncnc3c2c2c1CCC2,-3.54
8,CC(C)(C)C(=O)NCCn1ccc2ccccc21,18
9,CC1(C)C(N(O)C(=O)Nc2ccccc2)N(c2cccc(Cl)c2)C(=O)N1O (centres unmarked),9.66
10,COc1ccc(OC)c(NC(=O)CCN2CC(C)CC(C)C2)c1.Cl (centres unmarked),4.41
11,Cc1nnc(N2C(=O)c3oc4ccccc4c(=O)c3C2c2ccco2)s1 (centres unmarked),5.18
12,Cc1ccc(N2CC(C(=O)OCc3ccc([N+](=O)[O-])cc3)CC2=O)cc1 (centres unmarked),-58.5
13,Cc1nc(NC(=O)c2cccc(-c3cc4ccccc4oc3=O)c2)ccc1Br,3.12
14,Cc1cc2ccccc2n1CCNC(=O)Cc1cccc2ccccc12,21.7
15,O=C(CCCc1ccccc1)Nc1nncs1,11.2
16,CCN(CC)CCNS(=O)(=O)c1ccc(C(=O)NN)cc1,-0.906
17,CCOC(=O)c1c(OCC)[nH]c2c1cc(O)c1ccccc12,-1.01
18,Cc1ccccc1C(=O)Nc1nc(SCc2ccc(Cl)cc2)n[nH]1,11.1
19,COC(=O)Cn1c(C)nc2ccccc21,1.78
20,COc1ccc(S(=O)(=O)NC(C)C(=O)NCc2ccco2)cc1OC (centres unmarked),6.08
21,CCOc1cc(C(=O)Nc2cc(C)ccn2)cc(OCC)c1OCC,-15.3
22,O=C(NCc1ccco1)c1ccc(Cl)c(S(=O)(=O)Nc2ccccc2)c1,12.5
23,CC1=C(C(=O)OCc2ccccc2)C(c2ccc([N+](=O)[O-])cc2)NC(=O)N1C (centres unmarked),-42.9

row,Compound,"hERG current change (%, negative = inhibition) at 10uM [%]"
1,O=C(NNC1CC(=O)N(c2ccc(Cl)cc2)C1=O)c1ccco1 (centres unmarked),8.44
2,COc1ccc(NC(=O)CSc2nnc(CNC(=O)COc3ccc(Cl)cc3)o2)cc1,18.1
3,COc1ccc(CCC(=O)OCC(=O)N2CCN(S(=O)(=O)c3ccc(C)cc3C)CC2)cc1,5.48
4,CCCCN(C)C(=O)c1cc2cc([N+](=O)[O-])cc(OC)c2oc1=O,9.37
5,COc1ccc(N(C2=NCCCS2)S(=O)(=O)c2ccc(C(C)(C)C)cc2)cc1,0.221
6,CCOC(=O)c1cc(C)sc1/N=C/C1C(=O)NC(=S)NC1=O,12.6
7,COC(=O)c1ccccc1NCCO,14.4
8,O=C(C1=C(O)C(=O)N(CCOCCO)C1c1cccc([N+](=O)[O-])c1)c1cccs1 (centres unmarked),17.3
9,CCOc1ccc(N(CC(=O)NCC2CCCO2)C(=O)CCC(=O)Nc2nccs2)cc1 (centres unmarked),2.69
10,CC(=O)NCCn1c(SCC(=O)c2ccc(Cl)cc2)nc2ccccc2c1=O,-4.33
11,Cn1nnnc1Sc1ncnc2scc(-c3cccc(S(C)(=O)=O)c3)c12,-25.2
12,O/N=C(/c1ccc(F)cc1)C1CC1c1c(F)cccc1Cl (centres unmarked),-9
13,Cc1nnc(N2CCOCC2)c2nn(-c3cccc(Cl)c3)c(C)c12,-18.1
14,O=C(Nc1ccc(-c2cn3ccsc3n2)cc1)C1CC1,-2.76
15,S=C(NCCc1ccccc1)N1CCc2ccccc2C1,-9.51
16,CS(=O)(=O)N1CCCC(C(=O)NCCCN2CCN(Cc3ccccc3)CC2)C1 (centres unmarked),-8.38
17,O=c1c2ccccc2nc(/C=C/c2ccc(Cl)cc2)n1CCO,15
18,Cc1ccc(Cn2nnc3c(=O)[nH]c(C4CCCN(S(=O)(=O)c5ccc(F)cc5)C4)nc32)cc1 (centres unmarked),30.2
19,Cc1cccc(Oc2ccccc2NC(=O)CN2C(=O)NC3(CCCC3)C2=O)c1,-6.76
20,CCCCC1(CN2CCCC2=O)C(=O)NC(=O)NC1=O,6.1
21,O=C(Nc1cccc(Cl)c1Cl)c1ccccc1OCC(=O)N1CCOCC1,-13.5
22,CN1CCN(CC(=O)Nc2nc3ccccc3s2)CC1.O=CO,-5.53
23,CCOC(=O)COc1cc(-n2c(=S)[nH]c3cc(OC)c(OC)cc3c2=O)c(Cl)cc1Cl,-0.964

row,Compound,"hERG current change (%, negative = inhibition) at 10uM [%]"
1,Cc1c(N=Cc2nc3ccccc3n2C)c(=O)n(-c2ccccc2)n1C,-27.7
2,CCOC(=O)c1c(NC(=O)c2ccno2)c2cc([N+](=O)[O-])ccc2n1C,14.7
3,O=C(N/N=C/c1cccnc1)c1ccc2c(c1)OCO2,10.4
4,CCCCN(C(C)=O)c1c(N)n(CCC)c(=O)n(CC(=O)Nc2cc(Cl)cc(Cl)c2)c1=O,16.7
5,COc1ccc(C(=O)NCCc2nnc3ccc(SCC(=O)N4CCOCC4)nn23)cc1,9
6,COc1cc(NC(=O)CCn2c(=S)oc3ccccc32)cc(OC)c1OC,4.62
7,C[C@H]1CN=C(Nc2ccccc2)N1CC1CCC1,-0.391
8,Cc1nn(CC(=O)NCCN2CCCCCC2)c(=O)c2nn(-c3ccccc3)c(C)c12,18
9,CCOC(=O)CSc1cc(-c2ccccc2)nc2ncnn12,-44.5
10,CCCCNC(=O)CN1C(=O)C(CC)Oc2ccc(Cl)cc21 (centres unmarked),5.95
11,CC1CCc2sc3ncnc(N4CCOCC4)c3c2C1 (centres unmarked),-17.3
12,Cn1c(=O)c2c(nc3n2CC(COc2ccc(Cl)cc2)O3)n(C)c1=O (centres unmarked),-10.9
13,CC(Oc1ccccc1F)C(=O)NC1CCS(=O)(=O)C1 (centres unmarked),11
14,O=C(CCSc1ccc(F)cc1)Nc1ccc(-n2cnnn2)cc1,-26.4
15,Cc1nc(C)c(N)c(=O)[nH]1.Cl,16.3
16,Cc1cc(C(F)(F)F)nn1CC(=O)NCc1ccco1,9.81
17,COc1ccccc1NC(=S)Nc1ccccc1F,17.1
18,COc1ccccc1C(=O)NC(=S)Nc1cc(C(=O)O)ccc1C,13
19,O=C(c1cccs1)N(Cc1ccco1)Cc1cc2ccccc2[nH]c1=O,-15.1
20,Nc1nc(NCCCN2CCOCC2)nc(Nc2ccc(F)cc2)c1[N+](=O)[O-],-58.6
